# ± gives the standard deviation of the averaged measurements. This is one part of the list.
# System: PfAP2-EXP AP2 domain (GST-tagged)
# Assay: gcPBM binding intensity (ln(normalized median fluorescence intensity)); higher = stronger DNA binding
# Method in brief: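 GST-tagged P. falciparum DNA-binding domains produced in E. coli were incubated for 1 h on an Agilent 4 × 180k array of primer-extended double-stranded 36-bp intergenic genomic probes with negative controls. Binding intensity is the highest Masliner-normalised natural-log median intensity across replicate spots of either probe orientation, with bound protein detected by Alexa488 anti-GST antibody at 488 nm.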
row,Sequence,gcPBM binding intensity (ln)
1,ACCTATTTATAATAGTGTACGTACAAATTTGTTTAC [XGTACX_site8176],8.83 ± 0.34
2,TTTTGTAAATATATATGTACATATATATATATATAT [XGTACX_site5803],10.1 ± 0.34
3,TTTTTCATGTTTATTAGTACATATATTAAGAATGGA [XGTACX_site3493],8.39 ± 0.44
4,AAAATAAAAAATTAATGTACTTAGAATTGTCACTAA [XGTACX_site1346],8.23 ± 0.33
5,TAAAATAATAAACAGAAGAAATCATTCATATAAAAA [XGTACX_negctrl_site502],8.55 ± 0.32
6,AATTTGTTGAAACACACACACACATACATATATATA [CACACA_site2287],8.8 ± 0.35
7,TGATATTATATATATACACACATGTATGTATATATA [CACACA_site1364],8.26 ± 0.44
8,ATAAATATATGATAAAGTACATATTTATATAATAAA [XGTACX_site7263],8.26 ± 0.3
9,ATGTATCTATATATATGTACACATATTTTAATTAAA [XGTACX_site3673],8.55 ± 0.3
10,ATATTTATTTATAATTGTACTAATAATATATTTTAA [XGTACX_site587],8.22 ± 0.31
11,TTTACATTAAATCACGCACACAAAAAAAAAAAAAAA [CACACA_site2418],8.31 ± 0.47
12,ATAGGTGAATACTAATATAAATTCAAGAGGGAAAAG [CACACA_negctrl_site720],8.53 ± 0.37
13,TATATATATATAATGTGTACATACTAAATAGAGGAC [XGTACX_site4153],9.98 ± 0.26
14,TAAATATAAAAATGCACACACACAAAAAAAAAAAAA [CACACA_site895],8.46 ± 0.5
15,GAAATGTATAAATCCATACACACATAAATTTTAATA [CACACA_site2364],8.3 ± 0.26
16,TTTGAATTTTTATATACACACATTATTATATTATAT [CACACA_site1593],8.51 ± 0.37
17,ATCTATGGAGCTTATACACACTTTTATATTTTAACA [CACACA_site5994],8.66 ± 0.41
18,TATTTATTTGTGGGGTGTACGAAATTTTTTTTTTTT [XGTACX_site5091],9.48 ± 0.75
19,AGAAATTAATCGAAGTGTACATATAAACATACATAT [XGTACX_site5518],8.68 ± 0.3

row,Sequence,gcPBM binding intensity (ln)
1,ATATTTTGTATAATCACACACACTATTCTTAAATAG [CACACA_site7270],8.32 ± 0.2
2,ATTATACATTTTAGATGTACATATTTTAAATTTAAT [XGTACX_site5174],8.57 ± 0.38
3,AACAAACAAACAAATATACACACTTTTGTATAAAGT [CACACA_site3509],8.49 ± 0.46
4,TAATCAATTCAATATTGTACGATATTTACCTTTAAA [XGTACX_site4678],8.89 ± 0.42
5,AAATGGGCTTATTTATGTACTTAAATATATCTACCC [XGTACX_site3823],8.55 ± 0.44
6,CCCACATAAAAAAATAAACACACATATGTATATATA [CACACA_site9040],8.97 ± 0.54
7,AACCTCGTGTAATATGCATGTTCCCTTCAAAGTTTT [TGCATGCA_site459],8.74 ± 0.42
8,TACATATATATATACACACATACATATATATACGCA [CACACA_site792],8.45 ± 0.34
9,AAAAAAATCTATATTACACACATATATACCTATATA [CACACA_site7464],8.14 ± 0.45
10,TACATTGTATACATATGTACACATATATATATATAT [XGTACX_site6174],10.1 ± 0.4
11,TATTTATGTTATAATTGTACAATAAACAAATTTTTT [XGTACX_site5306],8.39 ± 0.41
12,TATCTGTATTTGTATACACACAAATGTATTTATTTA [CACACA_site4830],8.57 ± 0.41
13,TACAATATTTCGAGCTTGCACTTTTATTAAGTAAAT,8.46 ± 0.36
14,TATACAGACAGACACACACACATATATAAATATGTA [CACACA_site6912],8.46 ± 0.42
15,ATTATTATTTTTAACTGTACATAGATATAGATATCC [XGTACX_site8714],8.53 ± 0.4
16,TAAGAAAAATATATATGTACACATATATATATATAT [XGTACX_site8542],9.97 ± 0.57
17,AACTTTTATACGGATACACACAAAAAAAAATAAAAA [CACACA_site6547],8.51 ± 0.6
18,TGTATGTTATATACAACACACAAAAAAAAACAAGTT [CACACA_site301],8.51 ± 0.55
19,TATTTAAAAGATGAAAGTACACATTTAATTACATTT [XGTACX_site3781],8.21 ± 0.38

row,Sequence,gcPBM binding intensity (ln)
1,ATGTGTATACTAAGAACACACAAGTTACTTGGTGTT [CACACA_site6864],8.43 ± 0.36
2,TATATTTAACATACTTTTTTTTTTTTTTTTTTTTTT [CACACA_negctrl_site938],8.995 ± 0.064
3,AGTCTTTTACATTGCACACACATTTCTTTCCTTTTG [CACACA_site2988],9.13 ± 0.53
4,AAAAAAAAAAAACATACACACAAGAACAAAATATGA [CACACA_site3002],8.82 ± 0.48
5,TACATATATCTATGTGTGCACTTATTTCCGGACAAA,9.18 ± 0.16
6,TAATTAGCATAATACACATGCATACATTTATATATA [TGCATGCA_site542],8.62 ± 0.32
7,ATTAAATGATTCATATGTACATAAATAAATAAATAT [XGTACX_site2249],8.79 ± 0.47
8,TATTAATATTTACACACATGCGCACACATAAATAAA [TGCATGCA_site609],8.88 ± 0.36
9,TTTCTTTTTAAAGTGTATTAAAATTGAATAAAAAGA [XGTACX_negctrl_site408],8.38 ± 0.34
10,TTTTTTTTTTTTGTCACACACCTTCATAAGAAAAAA [CACACA_site4779],8.7 ± 0.45
11,ATCATCACATAAGAAAATAGATAAAAAAAAAAAAAT [XGTACX_negctrl_site589],8.35 ± 0.5
12,ATGAAAAAACATAATTGTACAAAAGTTGGATTCGAT [XGTACX_site7732],9.51 ± 0.49
13,GTACAGATATTGTACATACACACCTATATAAATATC [CACACA_site5739],8.65 ± 0.48
14,TAAATCCGCAGGCACACACACATATTAAGAAAAAAA [CACACA_site6061],8.46 ± 0.63
15,GAACAAAATGATAGAAGTACAAATATTTATTTTGTT [XGTACX_site7146],8.78 ± 0.48
16,TGGGAACAATATATTTGTACTTAAATAAATAAAAAA [XGTACX_site6762],8.43 ± 0.44
17,AAAGAGAAACAAAATTGTACATTATATTGTAGACGT [XGTACX_site976],8.79 ± 0.4
18,TATATTTATAAGTGTACACATTATATAAATCCCTAT [CACACA_site6122],8.62 ± 0.18
19,AAAAAAAGGAAATTTACACACACATATAATATACAT [CACACA_site3297],8.73 ± 0.5
